Assay results reported in PMC4336329 (PLoS ONE, 2015).
About 2,200 (0.71%) of roughly 310,000 compounds showed an effect of 50% or more. The effect is printed as a negative number. The list shows a part of the results.

These molecules were tested against human ether-à-go-go-related gene (hERG) potassium channel (human, UniProt Q12809) (assay: primary screen, population patch clamp on CHO cells stably expressing hERG).
Sequence of human ether-à-go-go-related gene (hERG) potassium channel (Q12809 whole entry, looked up): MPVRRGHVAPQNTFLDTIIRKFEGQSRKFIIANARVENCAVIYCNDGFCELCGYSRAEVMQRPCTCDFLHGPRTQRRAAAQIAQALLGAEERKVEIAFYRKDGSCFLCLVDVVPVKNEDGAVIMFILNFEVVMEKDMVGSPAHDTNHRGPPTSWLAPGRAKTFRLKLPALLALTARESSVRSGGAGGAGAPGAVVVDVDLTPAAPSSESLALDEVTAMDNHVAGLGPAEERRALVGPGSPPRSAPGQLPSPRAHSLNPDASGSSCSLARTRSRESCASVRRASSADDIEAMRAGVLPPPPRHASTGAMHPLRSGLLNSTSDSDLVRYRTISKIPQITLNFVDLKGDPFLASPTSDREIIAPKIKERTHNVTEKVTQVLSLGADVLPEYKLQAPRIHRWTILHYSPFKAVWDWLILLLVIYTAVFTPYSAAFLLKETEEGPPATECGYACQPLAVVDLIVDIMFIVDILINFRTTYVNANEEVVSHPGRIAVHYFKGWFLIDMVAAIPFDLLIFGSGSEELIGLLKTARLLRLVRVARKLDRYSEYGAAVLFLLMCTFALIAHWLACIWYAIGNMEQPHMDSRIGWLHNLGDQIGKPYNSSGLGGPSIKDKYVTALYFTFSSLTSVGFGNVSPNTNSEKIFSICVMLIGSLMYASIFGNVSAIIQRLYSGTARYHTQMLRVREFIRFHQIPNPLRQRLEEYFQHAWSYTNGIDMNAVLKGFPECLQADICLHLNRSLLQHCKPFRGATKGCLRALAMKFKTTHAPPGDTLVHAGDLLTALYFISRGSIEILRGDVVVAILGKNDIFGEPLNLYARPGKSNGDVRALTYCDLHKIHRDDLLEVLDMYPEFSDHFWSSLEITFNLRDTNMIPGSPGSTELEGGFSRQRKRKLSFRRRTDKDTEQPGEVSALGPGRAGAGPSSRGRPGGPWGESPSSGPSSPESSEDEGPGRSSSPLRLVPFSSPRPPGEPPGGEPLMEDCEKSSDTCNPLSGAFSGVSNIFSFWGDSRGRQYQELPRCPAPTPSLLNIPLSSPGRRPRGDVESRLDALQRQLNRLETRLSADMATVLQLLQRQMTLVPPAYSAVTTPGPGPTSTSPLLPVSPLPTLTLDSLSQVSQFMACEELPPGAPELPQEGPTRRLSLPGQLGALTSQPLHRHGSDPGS

| SMILES | hERG current change (%, negative = inhibition) at 1uM |
| --- | --- |
| CC1=Nc2nc(N3CCCCC3)c(C#N)c3c4c(nc(c23)N1)N(c1ccc(C(C)C)cc1)C(=O)C4.CN(C)C=O | 9.43% |
| CCOC(=O)C1CCCN(CC(O)COCc2ccccc2OC)C1 (stereo not drawn) | 10.6% |
| CCOC(=O)C1(CCOC)CCN(C/C=C/c2ccccc2OC)CC1 | -5.39% |
| CCCCS(=O)(=O)Nc1ccc2c(c1)ncn2C1CCCCC1 | -4.33% |
| Cc1nnc(NC(=O)CSc2nnnn2Cc2ccccc2)s1 | 3.64% |
| CS(=O)(=O)N(Cc1cccc(CN(C(C(=O)O)c2ccccc2)S(C)(=O)=O)c1)C(C(=O)O)c1ccccc1 (stereo not drawn) | 16.9% |
| COc1cc2[nH]c(C(=O)NN)c(N)c2cc1OC | 14.7% |
| COc1ccc(NC(=O)[C@H](C)NC(=O)[C@@H]2Cc3ccccc3CN2C(=O)OC(C)(C)C)cc1 | 19% |
| Cc1ccc(S(=O)(=O)N(C)C)cc1NC(=O)COC(=O)/C=C/c1cnc2ccccc2n1 | 20% |
| Cc1ccc2c(=O)n3c(nc2c1)C(Cc1ccccc1)NC(=O)c1ccc(Cl)cc1-3 (stereo not drawn) | 10.3% |
| CC(C)n1c(O)c(C=NCc2ccccc2)c(=O)[nH]c1=S | 17.3% |
| CC(C)(C)OC(=O)NCCCC[C@H](NC(=O)c1nc[nH]c1C(=O)NC(c1ccccc1)c1ccccc1)C(=O)OC(C)(C)C | 7.55% |
| COc1ccc(-n2nnnc2S(=O)(=O)Cc2ccc(C(=O)O)cc2)cc1 | 12.5% |
| COc1ccc(-c2cc3ccccc3s2)cc1[C@H]1[C@H]2C=CC[C@@H](C)[C@@H]2C(=O)N1Cc1ccccc1 | 5.88% |
| CCc1ccccc1Nc1cc(C(=O)NCc2ccccn2)c2ccccc2n1 | -1.94% |
| Cc1ccccc1CC(=O)Nc1ccon1 | 10.2% |
| CC(=O)COC(=O)C1=NN(c2ccccc2)C(=O)CC1 | 17.6% |
| COc1cccc(CC2(CO)CCN(Cc3cn(C)nc3C)CC2)c1 | 17.4% |
| CC(Oc1ccccc1F)C(=O)NNC(=O)CCNC(=O)c1ccccc1Cl (stereo not drawn) | 6.7% |
| O=C(c1ccc(Br)c(S(=O)(=O)N2CCCCC2)c1)N1CCCCC1 | 9.79% |
| Cc1ccc(-c2nnc(-c3ccccc3S(=O)(=O)Cc3ccc(Cl)cc3)o2)cc1 | 5.87% |
| COc1ccc(N(CC(=O)NCCc2ccccc2)C(=O)CCC(=O)Nc2nccs2)cc1 | 11.3% |
| O=C1c2ccc(Oc3cccc([N+](=O)[O-])c3)cc2C(=O)N1c1ccccn1 | 12.6% |
| Cc1ccc(NC(=O)c2cc([N+](=O)[O-])ccc2N2CCOCC2)cc1S(=O)(=O)N(C)C | 3% |
| Cc1ccc(/C=N\NC(=O)Cc2noc3ccccc23)cc1 | 10.7% |
| C/C(=N/NC(=O)c1ccc2nc[nH]c2c1)c1cccs1 | 8.84% |
| C(=N\Nc1ccc2ccccc2n1)/c1ccc2c(c1)OCCO2 | 9.97% |

| SMILES | hERG current change (%, negative = inhibition) at 1uM |
| --- | --- |
| Cc1nc2nc(SCC(=O)O)nn2c(C)c1Cc1ccccc1Cl | 5.58% |
| COc1ccccc1-c1c(C)[nH]n2c(=O)c(Cc3ccccc3)c(C)nc12 | 5.73% |
| CCCCN1C(=O)C(=O)N(CC(=O)Nc2cc(S(=O)(=O)N(C)C)ccc2C)C1=O | 9.82% |
| O=C(CN1C(=O)c2ccccc2S1(=O)=O)N1CCOCC1 | 5.46% |
| Cc1ccc(NC(=O)CN(C)C(=O)c2sc3cc(Cl)ccc3c2Cl)cc1 | 19.6% |
| CCC(=O)N(CCC(Cc1ccccc1)c1ccc2c(c1)OCO2)Cc1ccccc1F (stereo not drawn) | 3.46% |
| COc1ccc2sc(-c3ccccc3OC)c(C#CC(C)(C)O)c2c1 | 14.8% |
| COc1cc(C(=O)c2c(C)c(CCC#N)n3ccccc23)cc(OC)c1OC | 3.09% |
| Cc1cc(C)c(C)c(C(=O)c2ccccc2C(=O)O)c1C | 6.64% |
| CCCc1nn2c(=O)cc(CSCC(=O)Nc3ccccc3OC)nc2s1 | 10.5% |
| CCC1=NN(C(=O)Cc2ccc([N+](=O)[O-])cc2)C(O)(c2ccc(Br)cc2)C1 (stereo not drawn) | 2.03% |
| O=C(O)/C(=C\c1ccc(Cl)cc1)c1ccc(F)cc1 | 13.5% |
| Cc1cccc(-n2ncc3c(Nc4ccc(F)cc4)ncnc32)c1 | 8.92% |
| Cc1ccc(S(=O)(=O)NCC(=O)N(CC(=O)NC2CCCCC2)Cc2ccco2)cc1 | -8.5% |
| CCOC(=O)C1=C(CC)OC(N)=C(C#N)C1c1ccc(OC)c(OC)c1OC (stereo not drawn) | 11% |
| CC(=O)Nc1ccc(NC(=O)C(C)OC(=O)C2CC(=O)N(CCc3ccccc3)C2)cc1 (stereo not drawn) | 11.6% |
| COC(=O)C1=C(C)NC(c2c(O)ccc3ccccc23)C(C(=O)OC)=C1C (stereo not drawn) | 12.7% |
| CCCCCN1CC(=O)N2Cc3[nH]c4ccccc4c3C[C@H]2C1=O | 8.21% |
| COc1cc2nc(COc3ccccc3[N+](=O)[O-])oc(=O)c2cc1OC | 7.19% |
| CCOc1ccc(N/C=C/C(=O)c2cc(OC)c(OC)c(OC)c2)cc1 | 10.3% |
| COC(=O)CN1C(=O)N/C(=C/c2cc3c(cc2OC)OCO3)C1=O | 8.5% |
| COC(=O)c1ccc(NC(=O)CCS(=O)(=O)c2ccc(Br)s2)cc1 | 26.4% |
| Cc1ccc2c(c1)NC(=O)C(CC(=O)NCCCN1CCCCC1)O2 (stereo not drawn) | 6.37% |
| O=C(Nc1nnc(-c2ccc(F)cc2)s1)c1ccco1 | 12.5% |
| COc1ccc(C2=CC(c3ccc(F)cc3)n3nnnc3N2)cc1 (stereo not drawn) | 15.9% |
| CSc1ccc(C#N)cc1NC(=O)c1ccccc1C | -8.04% |
| Cc1ccc(CNC(=O)COc2ccc3c(c2)CCC3)cc1 | -2.48% |
